Paper PMC12136788
Some of the results follow.

B1: chr11:87793471:87793472:-_ENSMUSG00000020483_ENSMUST00000020775|mus_mus|mus_mus_mus_hu_False|18_48 (ssRNA)
RNA: GGGAGUUCUACAGUCCGACGAUCUGGACUUGAAAAUAAAAGAAUAAGCUGGAUCCCCCACCCCCCCACAUUGUCAACCCUACACGAGUUCUGAAUGGGCGACUCAUGAAAAUCAGCCUCAAUUGGCGCAAUGACCACCCCACCCAACAGAGGAUUGAGCAUCA
B2: chr6:114281168:114281169:-_ENSG00000196591_ENST00000368632|hu_hu|hu_hu_hu_mus_True|1_78 (ssRNA)
RNA: GGGAGUUCUACAGUCCGACGAUCUUCCAUUUUUCGGUAUAAACCAUAAUUUAGCAGCAAGUUAUGGGUCAUCCGGAUUCUAUGAGGCUUCAUGGGAUGACCCUGGCCAUAAUAAUAAUUGCCAAUAUCACCAUCAUACUAGAACAACAGAGGAUUGAGCAUCA
B3: 7809221_7809904_4510_CDS_ENSG00000170004_ENST00000380358|human|control|control (ssRNA)
RNA: GGGAGUUCUACAGUCCGACGAUCACACAGAUGGCGCAUGAACAAAGACACAUAGGCCUUAAACUCCUUCUCAGUCUUGCCCCUCAGGUCCCGCACCAGCCACUGUGUGGUGAAGGCAUCCUGUGGUGGCAUCCCCCAGCGCAUCAACAGAGGAUUGAGCAUCA
B4: chr14:56483160:56483161:+_ENSMUSG00000075592_ENSMUST00000168479|mus_mus|motif|central (ssRNA)
RNA: GGGAGUUCUACAGUCCGACGAUCAAUUCCUUUAUCUCCCACAGAUGUUGAAGACUGCCCUACUUGCAGAAGUCCCGGGCGGACCUUCUCUUUGAUACCACAACCCCCUGGCACCACCGAUAAACUGAUGAUUUUGGAGGGAAUCAACAGAGGAUUGAGCAUCA
B5: chr4:95690885:95690886:+_ENSMUSG00000028572_ENSMUST00000156910|mus_mus|mus_mus_mus_hu_False|28_68 (ssRNA)
RNA: GGGAGUUCUACAGUCCGACGAUCUUUAGAAAAUGUUAAAUACCAUGCUAAAAUAUUUUCAAAGGCUAGUCUUAUUUUACCAGAAGUCACAGGCAAGCAGACACUACAAACAUACAAGAAAAUGAAACUCAACAAUAUAACUGUCAACAGAGGAUUGAGCAUCA
B6: chr2:198351390:198351391:-_ENSG00000144381_ENST00000345042|hu_hu|hu_hu_hu_mus_False|28_108 (ssRNA)
RNA: GGGAGUUCUACAGUCCGACGAUCUCAUUCUCACUCUCCACAGAAAGGCUGCUUCUGAACUCUCAUGUGGUGACACAGCGCUACAGUCCUGAUGCUCACAGAACAGUAGUAAAAAUGCAGUGAUUUAAGUUGAAAGCAGGACACCAACAGAGGAUUGAGCAUCA
B7: chr1:60041781:60041782:+_ENSMUSG00000041040_ENSMUST00000036540|mus_hu|mus_mus_mus_hu_False|1_1 (ssRNA)
RNA: GGGAGUUCUACAGUCCGACGAUCAAGUUUACAAUAGUAAAGUAAAUGCAGUAGUGGCAAAUUUUCUUUUAUUUUCCUUCACAAAAGAAAAUCUUUAUAACCCAGUCCUAGUCUUGGACAUAGUGAAAGCUAUAAAUGCCACUGCAACAGAGGAUUGAGCAUCA
B8: chr1:150923288:150923289:+_ENSG00000143379_ENST00000271640|hu_hu|motif|central (ssRNA)
RNA: GGGAGUUCUACAGUCCGACGAUCCAAACAGAACAUCUCCAGGAAGAGGAAGUCACAGCCAGUCUCGAAAAGGUAGCGUUCGGUCUCCUGCAUUGUCCGAAGGCAGAGACCACAAGGUGUCUUAUAGAUAACAUGAAAGCCCAUCAACAGAGGAUUGAGCAUCA
B9: 187367305_187368869_812_CDS_ENSG00000065548_ENST00000337859|human|control|control (ssRNA)
RNA: GGGAGUUCUACAGUCCGACGAUCAAAUCCAGGAGGAAGUGCAUGACGAUACAUGCAAAUAUCACCCCCUCCAGGGCAUACCCAAAACCAGCCAUACUUGUUGUUUUCAAUAGCUUCCAGGAAAUGCUUGCACACUAUUUGAGUCAACAGAGGAUUGAGCAUCA
B10: chr1:187239687:187239688:+_ENSMUSG00000026615_ENSMUST00000046514|mus_hu|FALSE|FALSE (ssRNA)
RNA: GGGAGUUCUACAGUCCGACGAUCCCAGGAGUUUUGAUAGGCAAAUUGCUUCUCUCCUGGUAUCUUUGGAUCUUCAAAAACGAUUUCAAACAUUUUGGAAAAAUUCUGCCCUAAAUGAUGUGAUGUUCCUCCCUGGAUAGCUCUCAACAGAGGAUUGAGCAUCA
B11: chr4:39918803:39918804:-_ENSG00000121892_ENST00000303538|hu_hu|FALSE|FALSE (ssRNA)
RNA: GGGAGUUCUACAGUCCGACGAUCUACAUGUUCUGACAAAUCACUUACUGAUGAUCUUCCCAGCACCAGGACUUGAUUGAAAAAAUUAGCAAUGCAUGCCUCAAUAGUCUGGACUGUUCUUUUCAAUAGCACUUUUGCAAGGUCCAACAGAGGAUUGAGCAUCA
B12: chr4:95690885:95690886:+_ENSMUSG00000028572_ENSMUST00000156910|mus_mus|mus_mus_mus_hu_False|1_1 (ssRNA)
RNA: GGGAGUUCUACAGUCCGACGAUCUUUAGAAAAUGUUAAAUACCAUGCUAAAAUAUUUUCAAAGGCUUAUUUUAUUUUACCAGAAGUCACAGGCAAGCAGACACUACAAGAAUAUAUGAAAAUGAAACUCAACAAUAAAAUGUACAACAGAGGAUUGAGCAUCA
B13: chr17:65336665:65336666:-_ENSG00000197170_ENST00000356126|hu_hu|FALSE|FALSE (ssRNA)
RNA: GGGAGUUCUACAGUCCGACGAUCUAUAUACUGCUUUUAUUAUUGGAAUAUGUUUGUUAGUUGAAUGAAAACAAACAGUAGCUAAAAAGGUUUCAAAUGAUAGAAAAACAUAUCUGGGUAAGUUAUGACACAACUUUUUGUGUACAACAGAGGAUUGAGCAUCA
B14: 98545922_98546267_3831_CDS_ENSG00000196367_ENST00000456197|human|control|control (ssRNA)
RNA: GGGAGUUCUACAGUCCGACGAUCCCAUCAUGAACAGCUCCACUGUCUGCGAGGGAUGUCGAGUCAGGAACUUGAUCAGGGGCUCUCGGAAUGGACUCCCCGCCUCGAUCAGCAUCGCCCGCUCCGUUUUCAUGACAACCUCUACAACAGAGGAUUGAGCAUCA
B15: chrX:140365796:140365797:-_ENSMUSG00000031285_ENSMUST00000033642|mus_mus|mus_mus_mus_hu_False|38_108 (ssRNA)
RNA: GGGAGUUCUACAGUCCGACGAUCCUUCUCAUUACUUAGUGCCUGCAAGGUUCUGGUUCGGUAGAAGCUACAGUGGGCGCUGUGAGUGGGGCUAGGCAGUCCAUUCAUCCGGGAGCCUCGCAUGUUCCUGGAUGUCUUAUCUCUCAACAGAGGAUUGAGCAUCA
B16: chr7:34927866:34927867:-_ENSMUSG00000052997_ENSMUST00000102746|mus_mus|motif|central (ssRNA)
RNA: GGGAGUUCUACAGUCCGACGAUCGCUUUUGGCAGCAUCUUCAGCUUGUUUUGGCCCCACUUUUUCAGGGCUGUCACCAACGGCUUCAAAUUCAACAUCCUUUCCAAGAUCUUCACUAUGAAGAAUGUUGAUCAGCAAAGUAUACAACAGAGGAUUGAGCAUCA
B17: chr1:120316390:120316391:+_ENSMUSG00000064302_ENSMUST00000049404|mus_mus|motif|central (ssRNA)
RNA: GGGAGUUCUACAGUCCGACGAUCCAACAGGGUCUGGUCGUGCUCAAGGUCAGCAGACUUCUGUCUGUCUGAGAAAUAGUCGGUGAGUUCCUGGCCAACCUGCAGCCGCUUUCCCACAUCCUUCUGCAGCACCUGGGCCAGACACAACAGAGGAUUGAGCAUCA
B18: 118844846_118850702_1537_CDS_ENSG00000133835_ENST00000256216|human|control|control (ssRNA)
RNA: GGGAGUUCUACAGUCCGACGAUCAGGUCUAUUAGGUAUGGCUACAGCUACCUUGACUUUGUCUGAUGUCCGUUUUCCACCAAAGCCUCCAGAGCCAACAAGAAAGAGAGAGAACUGAUUGUGGCAUAUAAGUUCCUUCUCAGACAACAGAGGAUUGAGCAUCA
B19: chr1:137302511:137302512:-_ENSMUSG00000041879_ENSMUST00000161189|perfect_dup|FALSE|FALSE (ssRNA)
RNA: GGGAGUUCUACAGUCCGACGAUCCUUAACAGUGCUUUUGAAUUUGCUAUUUUCUAGUAGAGCAUGGACAAAUUCAAAAAUGCUAAAGACGAGAUUUUCAAAGCCCAGGACUUCACCAUCAGAAUCCACAGGAUCUUCUACUUCCAACAGAGGAUUGAGCAUCA
B20: chr11:102546300:102546301:-_ENSMUSG00000020925_ENSMUST00000092569|mus_hu|FALSE|FALSE (ssRNA)
RNA: GGGAGUUCUACAGUCCGACGAUCUGGGCCAAAUUCGGCCCGUGGGCAGUAGUUUGCCAACCCCUGGUAUAAAAUAUCUACUUUGUCUUGUCAGAGAAAUUGCUGUCCUUAGGCUUCUAGACAAUCUGCUGCCUGAAGUCAAGUCAACAGAGGAUUGAGCAUCA
B21: chr19:53703180:53703181:+_ENSMUSG00000024974_ENSMUST00000025930|mus_mus|motif|central (ssRNA)
RNA: GGGAGUUCUACAGUCCGACGAUCAUUUUGAACAUGCUGGUUUAUACCUUUUCGCCGAAAAUGUUCUAGCACUUUGUUAAUGCGGUCGGUUCCAUUUAAAAUGGCCUUUCCUGUUGCCGCUCUAAGAAGUUGCUGCUUCUUCUCCAACAGAGGAUUGAGCAUCA
B22: chr16:50257146:50257147:+_ENSG00000121274_ENST00000436909|hu_hu|motif|central (ssRNA)
RNA: GGGAGUUCUACAGUCCGACGAUCUAUCCGGAUGCCAGUCUUUAAAUAAUUGAAGUGUCGUCCAUAUAAUUCAAAAAAUUCGGUUAAGAGAACACCAUAGUUUGUAUUGGGGAUGCAAGCAUCUUCCCUGGGAUGUAACUGAAGCAACAGAGGAUUGAGCAUCA

Molecular target: T1, UNK ZnF1-3 (human, UniProt Q9C0B0 31-174)
T1 sequence: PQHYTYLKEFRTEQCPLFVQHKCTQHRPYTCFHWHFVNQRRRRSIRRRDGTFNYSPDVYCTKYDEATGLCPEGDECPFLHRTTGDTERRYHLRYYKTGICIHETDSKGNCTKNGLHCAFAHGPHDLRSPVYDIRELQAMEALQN
Assay: nsRBNS (natural sequence RNA bind-n-seq); RBNS binding buffer (assumed for nsRBNS): 25 mM Tris pH 7.5, 150 mM KCl, 3 mM MgCl2, 0.01% Triton X-100, 500 ug/ml BSA, 20 U/ml SUPERase-In, 4 C; UNK is unkempt and MSI1 is Musashi-1; names of the RNAs are library labels; protein concentration not given here; high values mean tight binding

Binder	binding signal [enrichment R]
B1	1.62
B2	0.714
B3	1.25
B4	0.805
B5	1.63
B6	1.4
B7	0.69
B8	1.41
B9	1
B10	0.818
B11	0.823
B12	1.82
B13	1.1
B14	0.746
B15	0.564
B16	0.712
B17	1.13
B18	1.07
B19	1.01
B20	0.667
B21	0.256
B22	1.62
